{"source": "PubChem BioAssay AID488969", "about": "(Vanderbilt High Throughput Screening Facility, 2010)", "note": "Whole data set: some 110,000 compounds, median “z-score” near -0.1, cut for the highest 2% near 2. The list shows a part of the results. The source made the active and inactive calls.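 Rule for the calls: active = z-score in the third read window above 3 or below -3; inactive = the rest.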", "data": [{"molecular_target": "Metabotropic glutamate receptor 8 (Rattus norvegicus) (UniProt P70579)", "sequence (P70579 whole entry, looked up)": "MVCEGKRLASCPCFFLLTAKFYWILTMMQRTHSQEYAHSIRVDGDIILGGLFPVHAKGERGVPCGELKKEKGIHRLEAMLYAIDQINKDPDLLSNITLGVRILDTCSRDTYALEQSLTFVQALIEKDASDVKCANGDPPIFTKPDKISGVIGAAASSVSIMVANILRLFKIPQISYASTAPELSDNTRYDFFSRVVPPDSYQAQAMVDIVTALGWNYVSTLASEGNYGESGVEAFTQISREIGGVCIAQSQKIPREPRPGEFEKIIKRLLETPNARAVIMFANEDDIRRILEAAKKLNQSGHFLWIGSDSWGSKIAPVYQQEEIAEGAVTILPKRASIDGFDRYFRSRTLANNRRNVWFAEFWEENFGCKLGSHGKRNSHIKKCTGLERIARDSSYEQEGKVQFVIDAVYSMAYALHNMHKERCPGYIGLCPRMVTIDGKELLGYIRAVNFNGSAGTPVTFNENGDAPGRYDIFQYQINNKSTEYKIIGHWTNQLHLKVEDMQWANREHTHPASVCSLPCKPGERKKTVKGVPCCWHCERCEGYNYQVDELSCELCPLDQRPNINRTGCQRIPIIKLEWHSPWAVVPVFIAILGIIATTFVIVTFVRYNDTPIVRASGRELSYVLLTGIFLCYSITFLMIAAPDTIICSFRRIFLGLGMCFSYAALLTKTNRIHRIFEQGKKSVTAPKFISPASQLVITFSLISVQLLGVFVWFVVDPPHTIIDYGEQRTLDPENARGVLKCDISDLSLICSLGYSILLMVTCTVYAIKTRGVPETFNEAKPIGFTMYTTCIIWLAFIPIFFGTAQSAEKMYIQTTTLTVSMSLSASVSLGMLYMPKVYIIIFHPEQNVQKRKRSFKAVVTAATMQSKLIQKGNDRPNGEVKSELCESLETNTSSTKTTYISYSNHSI", "assay": "rat mGluR8 modulators via GIRK flux, primary screen, cell-based, thallium flux, HTS (AID 488969)", "conditions": "HEK293 rat mGluR8, GIRK (G protein-gated inwardly rectifying potassium channel) thallium flux, FluoZin2; at 10 µM; stronger effect = higher value; submaximal glutamate (EC20) added with thallium", "values": [{"smiles": "CCOC(=O)N1CCN(C(=O)CCCn2c(=S)[nH]c3ccc(Br)cc3c2=O)CC1", "z-score": 1.24}, {"smiles": "O=C(c1ccco1)N1CCN(C(=O)c2cccs2)CC1", "z-score": -0.0296}, {"smiles": "COC(=O)C12CCC3(SCCS3)C(C(=O)OC)(CCC13SCCS3)C2", "z-score": -0.3}, {"smiles": "Cc1onc(-c2ccccc2Cl)c1C(N)=O", "z-score": -0.305}, {"smiles": "Cc1cccnc1NC1(C(F)(F)F)N=C(c2ccccc2)NC1=O", "note": "(stereo unspecified)", "z-score": -0.123}, {"smiles": "CNC(=O)c1cc2cccc(OC)c2oc1=O", "z-score": -0.116}, {"smiles": "Oc1c(C(c2ccccc2)N2CCN(Cc3ccccc3)CC2)sc2ncnn12", "note": "(stereo unspecified)", "z-score": -0.0198}, {"smiles": "CSC1=N/C(=C\\c2cccnc2)C(=O)N1c1ccccc1", "z-score": -0.343}, {"smiles": "Cc1ccc(C)c(-c2cc(C(=O)Nc3nccs3)c3ccccc3n2)c1", "z-score": 0.141}, {"smiles": "Cc1c(NS(=O)(=O)c2ccc(NC3CCCC3)c([N+](=O)[O-])c2)c(=O)n(-c2ccccc2)n1C", "z-score": -0.337}, {"smiles": "Cn1c(Cc2ccccc2)nnc1SCC(=O)NC1CCCCC1", "z-score": 0.0891}, {"smiles": "Nc1nc(NCC2CCCO2)nc(Nc2ccc(F)cc2)c1[N+](=O)[O-]", "note": "(stereo unspecified)", "z-score": -0.352}, {"smiles": "CC1CCc2c(sc3nc4n(c(=O)c23)CCS4)C1", "note": "(stereo unspecified)", "z-score": -0.0157}, {"smiles": "Cc1cc(C(=O)N/N=C/c2cc(Br)ccc2OC(=O)c2ccc(Br)cc2)n[nH]1", "z-score": -0.0963}, {"smiles": "CC(NC(=O)c1ccco1)c1cccc2ccccc12", "note": "(stereo unspecified)", "z-score": -0.644}, {"smiles": "COc1ccc(CCNC(=O)C2CCCN2C(=O)Nc2cccc(C(C)=O)c2)cc1OC", "note": "(stereo unspecified)", "z-score": -0.66}, {"smiles": "Cc1cccn2c(=O)c3cc(C(=O)N4c5ccccc5CC4C)n(C)c3nc12", "note": "(stereo unspecified)", "z-score": -0.424}, {"smiles": "CCOC(=O)/C(C(N)=NCCCO)=C(/O)c1ccccc1", "z-score": -0.146}, {"smiles": "COc1cc(=O)[nH]c(=O)n1C(=O)Cc1ccccc1", "z-score": 0.332}, {"smiles": "CCOc1ccc(Cc2c(Cl)nc(N)nc2Cl)cc1", "z-score": -0.106}, {"smiles": "Cc1ccc2c(C(=O)CN3CCOCC3)c(C)[nH]c2c1", "z-score": 0.335}, {"smiles": "Cc1ccc(N(C(=O)c2ccncc2)C2C=CS(=O)(=O)C2)cc1", "note": "(stereo unspecified)", "z-score": -0.299}, {"smiles": "Cc1[nH]nc2ncc(C(=O)c3cc(Cl)cc(Cl)c3O)cc12", "z-score": -0.034}, {"smiles": "O=C(NN=C1CCC(c2ccccc2)CC1)c1ccccc1-n1cccc1", "note": "(stereo unspecified)", "z-score": -0.268}, {"smiles": "CC(C)(C)c1ccc(C(=O)NC(Cc2ccccc2)C(=O)O)cc1", "note": "(stereo unspecified)", "z-score": -0.397}, {"smiles": "CC1CC(C)CN(Cc2nc(N)nc(Nc3ccc4ccccc4c3)n2)C1", "note": "(stereo unspecified)", "z-score": "active: 3.66"}, {"smiles": "COc1ccc(C(=O)c2c[nH]c(C(=O)NCc3cccnc3)c2)cc1", "z-score": -0.16}, {"smiles": "Cc1ccc(C(=O)Nc2ccc3nccnc3c2)cc1", "z-score": 0.166}, {"smiles": "CN(C(=O)c1ccco1)c1nc(CC(=O)Nc2ccccc2)cs1", "z-score": -0.0376}, {"smiles": "O=C(Nc1ccccc1)N(CCc1nc2ccccc2[nH]1)C1CCCC1", "z-score": -0.56}, {"smiles": "Cn1ncc(Cl)c1C(=O)NCc1ccc(Cl)cc1", "z-score": -0.0775}]}]}
